Measured values published in PMC12136788.
This is one part of the list.

B1: 117191750_117192490_1920_CDS_ENSMUSG00000066232_ENSMUST00000084731|mouse|control|control (ssRNA)
RNA: GGGAGUUCUACAGUCCGACGAUCAUGUGCCAAAGAAAAGAUCUCCUCAUAGAAUUCUAAGACAUGCUGUUGUAGAACGGUCCCAAUGACUUGUAAGCAGAUUCCCUCAAGCUGCUGGGUUAUCUCUUUGUGAUCUUCAACCACCAACAGAGGAUUGAGCAUCA
B2: 140892577_140894032_266_ncRNA_ENSMUSG00000030979_ENSMUST00000135760|mouse|control|control (ssRNA)
RNA: GGGAGUUCUACAGUCCGACGAUCCUUCAGGAUGAGACAGCUUUUCUGACAAACUGGGGAGAGACAUAAACUCAAAUGACAGCACAGGAAUCAGUGUGGCUUCUAGGCCACACAAUCGCAGCUCCUGGAUAUAUGGAUCCAGGCCAACAGAGGAUUGAGCAUCA
B3: chr12:60073987:60073988:-_ENSMUSG00000020986_ENSMUST00000021375|perfect_dup|FALSE|FALSE (ssRNA)
RNA: GGGAGUUCUACAGUCCGACGAUCCUGGGUCAGAUCCUGACGCAUGAAAUGGUGACGAUAGUAUGAACUCUCAUCAGGACUAUUGUUAAAAACUUGCAAGAAAGGAGAUCUUCUUAAAUGAAACAUAAACUGAGGAUAAAGAGACAACAGAGGAUUGAGCAUCA
B4: chr1:115279457:115279458:-_ENSG00000009307_ENST00000339438|hu_mus|FALSE|FALSE (ssRNA)
RNA: GGGAGUUCUACAGUCCGACGAUCGUUAAUUUUAUCUCCAGUUUCCAGCUGAACAUUCCCUUCCACAUCUUCAGAGGUGUAAGUCAGAUAAAAUACUUCCCCAUUACGUUCGUAGCAUACACUCCCUGUUGGACUCUGACCCGGCAACAGAGGAUUGAGCAUCA
B5: chr9:127920631:127920632:-_ENSG00000119414_ENST00000456642|hu_hu|FALSE|FALSE (ssRNA)
RNA: GGGAGUUCUACAGUCCGACGAUCAAUACGAUCAGGCCAUUUAGCCUUUAAUGCAAGAAGGUAAGUGAAGGUCUCCAAACUAUAGUAACCUCUGUCUACAAAAUCACCCAUAAAUAUGUAGUUUGUGUCAGGAACCUGACCUCCCAACAGAGGAUUGAGCAUCA
B6: 86275927_86276047_1213_CDS_ENSMUSG00000042350_ENSMUST00000043169|mouse|control|control (ssRNA)
RNA: GGGAGUUCUACAGUCCGACGAUCGUGCUCAUCUCUCAGGGACAUGGAAUUGUUGGUUGGGUUGUCAUACUCAUCUCGGGGCACUAUCUGCAGAGUGUGUGGCUGCCCACACGUCAACACCAGAGUAGAAAAAUGGCACACAAUCAACAGAGGAUUGAGCAUCA
B7: chr14:46222469:46222470:-_ENSMUSG00000037697_ENSMUST00000051310|mus_mus|FALSE|FALSE (ssRNA)
RNA: GGGAGUUCUACAGUCCGACGAUCACUGUCUGAAACUGAGGUAGGUUCUUUUGCUGGGUUGAGAAAAUUUGGCUUCAUAUGCUCAUAAGGUAGAGGGUUUGAAGUGUUGUACCAGUGGAUCUGGACUGGAGAAAUGUUGCUGUACAACAGAGGAUUGAGCAUCA
B8: chr1:175956164:175956165:-_ENSG00000143207_ENST00000367666|hu_hu|FALSE|FALSE (ssRNA)
RNA: GGGAGUUCUACAGUCCGACGAUCAGCAGCAAUCAGCACAUUGGACUCCCCAUCUGGUAGUGCCCUCCAGCACACAGCACUAACAAAUUCAUUUGUAUCAUCUUCUUUUCGGUCUUUGUCGAGAACACUUUUGACUGUAUCAAACAACAGAGGAUUGAGCAUCA
B9: 56799580_56800688_1359_CDS_ENSMUSG00000028431_ENSMUST00000030140|mouse|control|control (ssRNA)
RNA: GGGAGUUCUACAGUCCGACGAUCAGGUGGGACGACCGUCUGCCGAAAGACUGUCACCAACACCCUGUUUCCAUCAAUAACAGCCACAUUUGCCAAGUCAUUGGCACUAUUCCCAGAGCUCCGAUCAGUGGUCCAGUGCCAGUCCAACAGAGGAUUGAGCAUCA
B10: 56575270_56575390_1441_CDS_ENSMUSG00000013236_ENSMUST00000086828|mouse|control|control (ssRNA)
RNA: GGGAGUUCUACAGUCCGACGAUCGAUCAUGGUGGUGGCGCUGAGCAUGCGGGCCUGAACAUUCCUGGGAGCGCUGGCUGGUGCCUGCUCACCUGUGCGGGUCACCACCGAUUCACUGGGAGGGCCCUGGCCAAUGGAGUUGACCAACAGAGGAUUGAGCAUCA
B11: 66466729_66467468_1158_3pUTR_ENSMUSG00000024101_ENSMUST00000116556|mouse|control|control (ssRNA)
RNA: GGGAGUUCUACAGUCCGACGAUCACUCGAGCAGAGUGGCCCGGCCACUGGAGGGGUCAACCACCUCCUUAGGGGCUCCCUGAACAGAGGCUGUGUGGGCCAUGCUGCUGCUAGAGUCUUCUUCCCUGGCAACCUGGCCAGCAGCAACAGAGGAUUGAGCAUCA
B12: chr11:18536373:18536374:-_ENSG00000074319_ENST00000251968|hu_mus|FALSE|FALSE (ssRNA)
RNA: GGGAGUUCUACAGUCCGACGAUCAUAUGGGUAUGUGUCCAGCAGCCACAGGCAUAUUGGAAUAUUAUAUAUAUUACCUCGAUAACGCACUGGGAUUGUACCAGUGAGGUUCACCAGCUCCCUGGAACUGCCAUCAUUAAAAACCAACAGAGGAUUGAGCAUCA
B13: chr1:60041781:60041782:+_ENSMUSG00000041040_ENSMUST00000036540|mus_hu|mus_mus_mus_hu_False|38_78 (ssRNA)
RNA: GGGAGUUCUACAGUCCGACGAUCAAGUUUACAAUAGUAAAGUAAAUGCAGUAGUGGAAUGGCAAGUUUUAUUUUCCUUCACAAAAGAAAAUCUUUAGAUCUCAGUUCUAGUCUUGGACAUAGUGAAAGCUAUAAAUUCUGACUCAACAGAGGAUUGAGCAUCA
B14: chr2:5814250:5814251:-_ENSMUSG00000025816_ENSMUST00000102981|mus_hu|mus_mus_mus_hu_True|28_68 (ssRNA)
RNA: GGGAGUUCUACAGUCCGACGAUCUUCCUUUCCGGUUUCUGAAUUUCUGGUAGAACUGCACAGAAUGGUUUAAUAACUUCUAAAAAUUUGAUGCCCAUGGCUGCUGCUCAGCACACCCAGGGGGAAACCGCGGCCUCGGCGCUGCAACAGAGGAUUGAGCAUCA
B15: chr10:131959147:131959148:+_ENSG00000108010_ENST00000331244|hu_mus|FALSE|FALSE (ssRNA)
RNA: GGGAGUUCUACAGUCCGACGAUCCAGCUUUUUCAGGCGAAGGCUGAGGUCUUCUUUAAGAUGUUCAUUAGUACUAGGAGGAAAGGCUCCGCUAGACACGUGUCGCUGGACUUUUUUGGUCAACUCUGGGGCAUGUGCACCAUCCAACAGAGGAUUGAGCAUCA
B16: 44920601_44921948_1463_CDS_ENSG00000147050_ENST00000377967|human|control|control (ssRNA)
RNA: GGGAGUUCUACAGUCCGACGAUCCAUCAGUUUCUGUGCUGGAUUUAAAUUAUUUCUAUUUGCGCGGAGCUGUUCCAAAUGCUGUAAUUUCUGUGGUGUCAAACACCAUGAAUGAGCUUGUUGCUGUACUGGAGGAUGUGACACCAACAGAGGAUUGAGCAUCA
B17: chr12:48362563:48362564:+_ENSG00000134291_ENST00000256686|hu_hu|hu_hu_hu_mus_False|38_78 (ssRNA)
RNA: GGGAGUUCUACAGUCCGACGAUCUCCGUCAAGCCCUUCGAUAGACCCUUGCGGGGGUGGUAAAAACCACUUUGUAUGGGGAAGGAAAAGAAACGCCAACACACUUUCAAAAAGCGGGGGUGGGGUGAGGCGGGAGGGGGAGGUCAACAGAGGAUUGAGCAUCA
B18: chr13:98016622:98016623:+_ENSMUSG00000041773_ENSMUST00000041623|mus_mus|FALSE|FALSE (ssRNA)
RNA: GGGAGUUCUACAGUCCGACGAUCGACGAAUGCAGUAGGGAUCAGAGAGUAGGGAACAGUGGUUAUGCUGUUCCACACAUCUAAAGUUGGGUCGUAACAGUCCAAAGUCUUGCAGCGCUGAAUGCCGAAGUACCCUCCAACUACCAACAGAGGAUUGAGCAUCA
B19: chr16:94690093:94690094:+_ENSMUSG00000040785_ENSMUST00000117648|mus_hu|mus_mus_mus_hu_True|38_98 (ssRNA)
RNA: GGGAGUUCUACAGUCCGACGAUCGGGCUGGGAUGACAGCAGACAGCCCUCGAUUCCAGGGGGAAAAAGUCUUAGUCGAUACUAAUUAAAAAGUGUUUUUAUAAUUGGAAAAUCAGAUUACAUCUAUAAAAGAUGAAAAGCAAACAACAGAGGAUUGAGCAUCA
B20: chr3:102850973:102850974:+_ENSMUSG00000068823_ENSMUST00000029446|mus_hu|motif|central (ssRNA)
RNA: GGGAGUUCUACAGUCCGACGAUCACGGUGAUCUGAAUGGGAAUGAAAUGAAACCGUGCCCUUGGGAAGUUUUUUAAUCCGGAUAGCAUGAUUUCUUUGAGCAGAGAGCAUAUCAGGAACCACAGUAAACUCUACUUCAUCUGCCAACAGAGGAUUGAGCAUCA
B21: 31772456_31772576_291_3pUTR_ENSMUSG00000020300_ENSMUST00000109412|mouse|control|control (ssRNA)
RNA: GGGAGUUCUACAGUCCGACGAUCAGAGCUGUUGCUUUUCUAAAGGGUCUUGUUGUUCUUGCUGUUGACUUUUUGCUUUUUCUGACCCCAAGAUCUCAUCCUGAAUGUUAUGAGUAGCCGGGGCAGGAAAGAGCCAGGCUGACCCAACAGAGGAUUGAGCAUCA
B22: chr14:102449733:102449734:+_ENSG00000197102_ENST00000360184|hu_hu|motif|central (ssRNA)
RNA: GGGAGUUCUACAGUCCGACGAUCCAAUACCUGAAGUUUCUCAUACUCAUCAUCCCAAGUCUGAAAAACUUCAAAGCAUGCGGCCAUAACUUUUUCAAAUUCUUCAUAAGCAACAUGCAUCAAUUUCCUAGUGCCCAAUACUUUCAACAGAGGAUUGAGCAUCA

What follows are binders tested against T1, UNK ZnF1-3 (human, UniProt Q9C0B0 31-174) (assay: nsRBNS (natural sequence RNA bind-n-seq); RBNS binding buffer (assumed for nsRBNS): 25 mM Tris pH 7.5, 150 mM KCl, 3 mM MgCl2, 0.01% Triton X-100, 500 ug/ml BSA, 20 U/ml SUPERase-In, 4 C; UNK is unkempt and MSI1 is Musashi-1; names of the RNAs are library labels; protein concentration not given here; high values mean tight binding).
T1 sequence: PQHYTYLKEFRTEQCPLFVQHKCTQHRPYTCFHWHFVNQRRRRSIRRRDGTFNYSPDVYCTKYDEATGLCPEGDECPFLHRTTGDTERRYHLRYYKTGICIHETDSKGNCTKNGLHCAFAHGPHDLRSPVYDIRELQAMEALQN

Binder | binding signal [enrichment R]
B1 | 0.754
B2 | 1.55
B3 | 1.41
B4 | 0.834
B5 | 1.08
B6 | 1.18
B7 | 1.23
B8 | 0.985
B9 | 0.638
B10 | 0.737
B11 | 0.498
B12 | 1.08
B13 | 0.455
B14 | 1.12
B15 | 1.03
B16 | 1
B17 | 1.65
B18 | 0.841
B19 | 2.05
B20 | 1.23
B21 | 0.502
B22 | 0.702
